For test [1], the target named is Histamine N-methyltransferase (Homo sapiens) (UniProt P50135). The test can be described thus: Confirmatory Screen for Target Class Profiling of Small Molecule Inhibitors of Methyltransferases (AID 1745852).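 Note: inhibitor potency for blocking SAH production.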 The settings on record: MTase-Glo luminescence, SAH detection, recombinant enzyme; measured here: HNMT inhibition potency.
Test [2] concerns the target Nicotinamide N-methyltransferase (Homo sapiens) (UniProt P40261). The description is as above. The settings on record: MTase-Glo luminescence, SAH detection, recombinant enzyme; measured here: NNMT inhibition potency.
The nature of test [3]: qHTS drug screen for cell cycle checkpoint inhibitors in PARPi-resistant BRCA-mutant ovarian cancer cell lines. (AID 1963452). Particulars: PEO1/OlaR viability, CellTiter-Glo luminescence, 96 h. A digest of the protocol: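 PEO1, PEO4 and PEO1/OlaR ovarian cancer cells, 600 per well, exposed 96 h at 37C to a dilution series. Viability read by CellTiter-Glo luminescence, normalized to DMSO and empty wells; activity summarized as Z-AUC.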
On the technique in general: Quantitative high-throughput screening tests each substance at several concentrations.

A short description of test [4]: qHTS for identification of novel therapeutic agents for treatment of microphthalmiaassociated transcription factor (MiT) renal cell carcinoma (RCC) (AID 1963991).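 For z-score: curves scaled with 100% = DMSO viability and 0% = empty wells.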 The settings on record: CellTiter-Glo, 48 h; for z-score: stronger effect = lower value. A digest of the protocol: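 UOK109/UOK124/UOK145 (TFE3 fusions, three partners); 500 cells/well; MIPE v4.0, 1912 cpds, 11 conc.; 48 h, 37 C; CellTiter-Glo, 15 min RT; lum. Norm.: DMSO 100%, empty 0%.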

Test [5] concerns the target Phenylethanolamine N-methyltransferase (Homo sapiens) (UniProt P11086). The test can be described thus: Confirmatory Screen for Target Class Profiling of Small Molecule Inhibitors of Methyltransferases (AID 1745852).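 Note: inhibitor potency for blocking SAH production.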 The settings on record: MTase-Glo luminescence, SAH detection, recombinant enzyme; measured here: PNMT inhibition potency.
Where [6] appears, read: measured here: PEO1 parental viability.
[7] abbreviates: TFE3-RCC UOK109 viability, measured here: UOK109 Z-AUC.
Where [8] appears, read: TFE3-RCC viability, measured here: UOK124 Z-AUC.
Setting [9] is: TFE3-RCC viability, measured here: UOK124 cell viability.
The mark [10] stands for this setting: TFE3-RCC viability, measured here: UOK145 Z-AUC.
Where [11] appears, read: TFE3-RCC viability, measured here: UOK145 cell viability.

Several values for one entry are separate records, joined by “and”; a condition that tells them apart may be missing. Equal values may be shown once. This is one part of the list. Further columns of the screen follow, without active or inactive calls. For some of these results: Most of these compounds were active or inconclusive in the main read-out, so they are no random draw. The note in brackets gives the kind of curve behind each potency; many fits are weak.
Tags give direction and shape of the fitted curve.

UniProt P50135, sequence (P50135 whole entry, looked up): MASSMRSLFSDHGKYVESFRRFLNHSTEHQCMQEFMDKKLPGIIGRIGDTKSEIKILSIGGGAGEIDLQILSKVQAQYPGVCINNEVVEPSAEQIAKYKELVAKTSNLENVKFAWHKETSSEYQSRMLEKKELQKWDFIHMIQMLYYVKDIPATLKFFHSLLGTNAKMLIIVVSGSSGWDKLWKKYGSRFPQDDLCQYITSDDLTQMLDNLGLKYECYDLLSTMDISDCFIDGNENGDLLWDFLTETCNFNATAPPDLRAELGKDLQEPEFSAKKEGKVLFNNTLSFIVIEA
UniProt P11086, sequence (P11086 whole entry, looked up): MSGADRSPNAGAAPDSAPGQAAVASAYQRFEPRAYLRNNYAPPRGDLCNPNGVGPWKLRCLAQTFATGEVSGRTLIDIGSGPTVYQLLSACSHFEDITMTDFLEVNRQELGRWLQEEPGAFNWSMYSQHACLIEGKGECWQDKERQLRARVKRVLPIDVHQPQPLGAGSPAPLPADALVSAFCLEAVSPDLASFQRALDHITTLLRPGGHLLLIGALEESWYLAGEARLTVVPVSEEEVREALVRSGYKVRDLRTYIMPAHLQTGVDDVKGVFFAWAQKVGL
UniProt P40261, sequence (P40261 whole entry, looked up): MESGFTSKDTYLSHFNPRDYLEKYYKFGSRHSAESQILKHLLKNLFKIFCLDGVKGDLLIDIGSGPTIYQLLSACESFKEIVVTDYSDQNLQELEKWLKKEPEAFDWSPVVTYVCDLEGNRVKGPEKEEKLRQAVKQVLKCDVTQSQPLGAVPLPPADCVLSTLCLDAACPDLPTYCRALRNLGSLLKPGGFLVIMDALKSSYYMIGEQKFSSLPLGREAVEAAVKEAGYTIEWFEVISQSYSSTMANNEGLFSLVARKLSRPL

On to `CCN(CC)CCNC(=O)CCc1nnc2n(CCc3ccccc3)c(=O)c3ccccc3n12`, for which, in test [1], the IC50 (usually the concentration that gives 50% inhibition) was 21.5 µM [falling, partial curve].

Turning to `COc1ccc(S(=O)(=O)NC[C@H]2Cn3c(-c4ccc(Cl)cc4)cnc3CO2)cc1`, the IC50 was 39.3 µM [falling, partial curve, poor fit] in test [1] and 31.2 µM [falling, partial curve, poor fit] in test [2].

In the case of `COc1ccc(N(C(=O)Nc2c(C)cccc2C)c2cc(Nc3ccc(N4CCN(C)CC4)cc3)ncn2)c(OC)c1`, the IC50 in test [1] was 24.1 µM [falling, partial curve]; in test [2], 21.5 µM [falling, partial curve].

As for `COc1ccc(-c2cc3nc4c(c(=O)n3[nH]2)CN(C(=O)CN(C)S(=O)(=O)c2cnc[nH]2)CC4)cc1`, the IC50 in test [1] is 27.1 µM [falling, partial curve, poor fit]; in test [2], 19.2 µM [falling, partial curve, poor fit].

`Nc1ncnc2c1c(-c1ccc(Oc3ccccc3)cc1)nn2[C@@H]1CCCNC1`: the IC50 in test [1] was 19.2 µM [falling, partial curve]; in test [2], 21.5 µM [falling, partial curve].

With `CCN1CCN(c2ccc(Nc3ccc(-c4ccc(C(N)=O)cc4)n4ncnc34)cc2)CC1`, the IC50 in test [1] is 24.1 µM [falling, partial curve]; in test [2] it was 19.2 µM [falling, partial curve].

As for `Cc1c[nH]c2ncnc(N3CCC(CN)(C(=O)Nc4cccc(OC(=O)N(C)C)c4)CC3)c12`, the IC50 is 49.4 µM [falling, partial curve] in test [1] and 49.4 µM [falling, partial curve] in test [2]. In addition, the AC50 – broadly, the concentration giving half of the maximal activity seen – in test [3] (setting [6]) is 0.616 µM [falling, partial curve, poor fit]; in test [3] (measured here: PEO4 viability) it was 24.5 µM [falling, single point].

Consider `CCS(=O)(=O)c1cccc(-c2cc(C(=O)NC3CCN(C)CC3)c(C)c3[nH]c4ncc(C)cc4c23)c1`, for which the IC50 was 14.9 µM [falling, partial curve] and 21.7 µM [falling, partial curve, poor fit] in test [1]; 13.3 µM [falling, partial curve] and 21.7 µM [falling, partial curve] in test [2]. Moreover, the AC50 in test [3] (setting [6]) is 1.38 µM [falling, full curve]; in test [3] (measured here: PEO4 viability), 1.95 µM [falling, full curve]; in test [4] (setting [9]), 6.62 µM [falling, partial curve]; in test [4] (setting [11]) it was 20.9 µM [falling, partial curve]. Further, the figures for the z-score in test [4] (setting [7]), in test [4] (setting [8]) and in test [4] (setting [10]) were -0.579, -0.881 and -0.625, respectively.

With `CC[C@@H]1C(=O)N(C)c2cnc(Nc3ccc(C(=O)NC4CCN(C)CC4)cc3OC)nc2N1C1CCCC1`, the IC50 in test [1] is 19.3 µM [falling, partial curve]; in test [2], 21.7 µM [falling, partial curve]; in test [5], 21.7 µM [falling, partial curve]. Also, the AC50 in test [3] (setting [6]) is 0.0155 µM [falling, full curve]; in test [3] (measured here: PEO4 viability) it was 0.0174 µM [falling, full curve]; in test [4] (setting [9]), 1.05 µM [falling, full curve]; in test [4] (setting [11]), 16.6 µM [falling, partial curve].

As for `CN(C)CC1CCn2c(c(C3=C(c4cn(C)c5ccccc45)C(=O)NC3=O)c3ccccc32)C1` (centres undefined), the IC50 in test [1] was 19.2 µM [falling, partial curve]; in test [2], 21.5 µM [falling, partial curve].

With `CCn1c2ccccc2c2cc(Nc3ccnc(NCCCN4CCOCC4)n3)ccc21`, the IC50 in test [1] was 2.71 µM [falling, full curve]; in test [2], 21.5 µM [falling, partial curve]; in test [5], 24.1 µM [falling, partial curve, poor fit].

Take `CCn1cc(-c2ccnc3[nH]c(-c4cccc(CN(C)C)c4)cc23)c(-c2ccc(NC(=O)N(C)C)cc2)n1`: the IC50 was 3.32 µM [falling, partial curve] and 4.32 µM [falling, full curve] in test [1]; 24.3 µM [falling, partial curve] in test [2]. Also, the AC50 was 6.92 µM [falling, partial curve] in test [3] (setting [6]); 5.49 µM [falling, partial curve] in test [3] (measured here: PEO4 viability); 11.8 µM [falling, partial curve] in test [4] (setting [9]); 10.5 µM [falling, partial curve] in test [4] (setting [11]). For the same compound, the z-score in test [4] (setting [7]) is -0.057; in test [4] (setting [8]), -1.98; in test [4] (setting [10]), -0.197.

For the compound `C=CC(=O)Nc1cccc(Oc2nc(Nc3ccc(N4CCN(C)CC4)cc3)ncc2Cl)c1`, the IC50 in test [1] is 21.5 µM [falling, partial curve]; in test [2], 21.5 µM [falling, partial curve]. For the same compound, the AC50 in test [3] (setting [6]) is 1.55 µM [falling, full curve]; in test [3] (measured here: PEO4 viability), 1.23 µM [falling, full curve]; in test [4] (setting [9]), 20.9 µM [falling, partial curve]; in test [4] (setting [11]), 4.18 µM [falling, partial curve].

Turning to `COc1cc(N2CCC(N)CC2)ccc1Nc1ncc(Cl)c(-c2c[nH]c3ccccc23)n1`, the IC50 was 15.2 µM [falling, partial curve] in test [1] and 24.1 µM [falling, partial curve] in test [2]. Moreover, the AC50 in test [3] (setting [6]) is 1.95 µM [falling, full curve]; in test [3] (measured here: PEO4 viability), 0.616 µM [falling, full curve].

In the case of `CNCCN(C)Cc1cn[nH]c1-c1ccc(OC2CC(OCCC3CCOCC3)C2)cc1` (centres undefined), the IC50 in test [1] was 17.2 µM [falling, partial curve]; in test [2], 0.0153 µM [rising, full curve, poor fit]. In addition, the AC50 in test [3] (setting [6]) was 6.92 µM [falling, partial curve].

As for `Nc1ncnc2c1c(-c1cccc(OCc3ccccc3)c1)cn2C1CC(CN2CCC2)C1` (centres undefined), the concentration for half-maximal inhibition (IC50) in test [1] is 2.71 µM [falling, full curve]; in test [2], 24.1 µM [falling, partial curve, poor fit]; in test [5], 9.61 µM [falling, partial curve]. Moreover, the AC50 in test [3] (setting [6]) is 15.5 µM [falling, partial curve]; in test [3] (measured here: PEO4 viability) it was 3.89 µM [falling, partial curve]; in test [4] (setting [9]) it was 14.8 µM [falling, partial curve]. In addition, the figures for the z-score in test [4] (setting [7]), in test [4] (setting [8]) and in test [4] (setting [10]) were 0.295, 0.0186 and 0.751, respectively.

As to `Nc1nccc(Oc2ccc(NC(=O)c3c[nH]cc(-c4ccc(F)cc4)c3=O)cc2F)c1Cl`, the IC50 in test [1] is 6.07 µM [falling, full curve]; in test [2], 6.07 µM [falling, full curve]. The AC50 in test [3] (setting [6]) was 15.5 µM [falling, partial curve]; in test [3] (measured here: PEO4 viability), 12.3 µM [falling, partial curve]; in test [4] (setting [9]) it was 23.5 µM [falling, partial curve]; in test [4] (setting [11]) it was 20.9 µM [falling, partial curve]. The results for the z-score in test [4] (setting [7]), in test [4] (setting [8]) and in test [4] (setting [10]) were 0.372, 1.08 and -0.0965, respectively.

Regarding `N#Cc1ccc(COC[C@H]2O[C@@H](n3c(NCc4ccc(Cl)c(Cl)c4)nc4c(N)ncnc43)[C@H](O)[C@@H]2O)cc1`, the IC50 in test [1] was 10.5 µM [falling, partial curve]; in test [2], 6.63 µM [falling, partial curve]; in test [5], 8.35 µM [falling, partial curve]. Besides, the AC50 was 4.36 µM [falling, full curve] in test [3] (setting [6]) and 7.76 µM [falling, partial curve] in test [3] (measured here: PEO4 viability).

For the compound `c1ccc(Cn2c(-c3ccc(OCC(C4CCNCC4)n4c(-c5ccccc5)nc5ccccc54)cc3)nc3ccccc32)cc1` (centres undefined), the IC50 in test [1] is 21.5 µM [falling, partial curve]; in test [2] it was 19.2 µM [falling, partial curve]. The AC50 in test [3] (setting [6]) is 19.5 µM [falling, single point]; in test [3] (measured here: PEO4 viability), 6.92 µM [falling, partial curve].

`CNC(=O)c1ccccc1Nc1nc(Nc2ccc(N3CCNCC3)cc2)ncc1Cl`: the IC50 in test [1] is 21.5 µM [falling, partial curve]; in test [2], 21.5 µM [falling, partial curve].

On to `Cc1cc(O)c(-c2ccc([C@@H](C)CN(C)C)cc2)c2c1[nH]c(=O)c1sccc12`, for which the IC50 in test [1] is 1.52 µM [falling, full curve]; in test [2], 17.1 µM [falling, partial curve]; in test [5], 24.1 µM [falling, partial curve]. Further, the AC50 in test [3] (setting [6]) was 0.195 µM [falling, full curve]; in test [3] (measured here: PEO4 viability), 0.174 µM [falling, full curve].

Turning to `COc1cc2c(NC3CCN(C(C)C)CC3)nc(C3CCCCC3)nc2cc1OCCCN1CCCC1`, the IC50 in test [1] was 7.64 µM [falling, partial curve]; in test [2], 21.5 µM [falling, partial curve]. The z-score is -0.205 in test [4] (setting [7]), -2.01 in test [4] (setting [8]) and -0.521 in test [4] (setting [10]). Besides, the AC50 in test [4] (setting [9]) is 6.62 µM [falling, full curve]; in test [4] (setting [11]), 9.35 µM [falling, partial curve].

`CCCc1cc2c(N3CCN(C4=NCC(C)(C)S4)CC3)ncnc2s1`: the IC50 in test [1] is 19.2 µM [falling, partial curve]; in test [2], 7.64 µM [falling, partial curve].

`O=C(O)/C=C/c1ccc(-c2ccc(O)c(C34CC5CC(CC(C5)C3)C4)c2)cc1`: the IC50 in test [1] was 30.4 µM [falling, single point]; in test [2], 24.1 µM [falling, partial curve].

Regarding `Nc1nc(NCC2CCC(CNS(=O)(=O)c3cccc4ccccc34)CC2)nc2ccccc12` (centres undefined), the IC50 in test [1] was 5.41 µM [falling, full curve]; in test [2], 24.1 µM [falling, partial curve, poor fit]; in test [5] it was 17.1 µM [falling, partial curve, poor fit].

In the case of `CCCCNc1ncc(C(=O)NCc2ccc(-n3ccnc3)cc2)c(NC2CCC(O)CC2)n1` (centres undefined), the IC50 in test [1] was 19.2 µM [falling, partial curve]; in test [2], 19.2 µM [falling, partial curve]; in test [5], 19.2 µM [falling, partial curve].

The values are drawn from PubChem BioAssay (NCATS).
